Experimental data taken from PubChem BioAssay AID485364 (National Center for Advancing Translational Sciences (NCATS), 2010).
In all, about 360,000 compounds went through this assay and about 11,000 (3.1%) were called active. This list was built around the results that the source calls inconclusive (neither active nor inactive); the mix of calls is not that of the screen. The call rests on the fitted dose curve; in most records, active means well fitted inhibition curve with a large enough effect; inconclusive means small, poorly fitted or top-dose-only effect; inactive means no such curve, though single readings can be large or run the other way. No potency is given beside an inconclusive call; the fits are too rough.

Target: Schistosoma mansoni thioredoxin glutathione reductase (TGR) (UniProt Q962Y6)
Assay: qHTS Assay for the Inhibitors of Schistosoma Mansoni Peroxiredoxins; further: nearly all actives have a fitted effect of over 60% in size
Settings: purified TGR, DTNB reduction, TNB absorbance 405 nm; series mostly up to 114 µM
In short: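 TGR 20 nM + NADPH 100 uM (dispensed conc.), cpd preinc 15 min RT; start with NADPH (500 uM addition) then DTNB (15 mM addition). Kinetic TNB absorbance, 405 nm filter. Four-parameter Hill fit across titration.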
Potency means the concentration at half of the fitted maximal effect; tags describe the fitted curve by direction and shape.

For `O=C(C1CCN(c2ccc(N3CCOCC3)nn2)CC1)N1CCc2ccccc2C1`, which Potency is on record?
Its Potency is inconclusive [inhibitor, full curve].

Which Potency does the source give for `O=C(CCc1nc(-c2ccccc2)no1)NCc1ccco1` here?
Its Potency is active: 44.7 µM.

With `Cc1sc2ncnc(OCC(=O)N3CCN(C(=O)c4ccco4)CC3)c2c1C` as the compound, how does the Potency read?
The Potency was inconclusive [inhibitor, partial curve].

How did the Potency turn out when `O=C(CCN1CCCCC1)N=Nc1c(O)[nH]c2ccccc12` was run?
The Potency was active: 11.2 µM.

How did the Potency turn out when `Cc1occc1C(=O)/C(C#N)=C/c1ccc(O)c(Br)c1` was run?
Its Potency is inconclusive [inhibitor, partial curve].

How did the Potency turn out when `Cc1ccc(NC(=S)NNC(C)(C)C)cc1` was run?
The Potency was inconclusive [inhibitor, full curve].

Which Potency does the source give for `CC1(C)Cc2c(C#N)c(N3CCN(C(=O)c4ccco4)CC3)nc(-c3ccco3)c2CS1` here?
The Potency was active: 2.82 µM.

With `CC1=CN2C(=N)/C(=C/c3cn(CCCOc4ccccc4C)c4ccccc34)C(=O)N=C2S1` as the compound, how does the Potency read?
The Potency was inconclusive [inhibitor, single point].

`Cc1ccc(C)c(S(=O)(=O)NCCOC(=O)Nc2sc(=S)n(C)c2C)c1` was tested. Which Potency did it give?
The Potency was inconclusive [inhibitor, partial curve].

Which Potency does the source give for `CCCN1CCCC(C(=O)c2cc(C)c(OC)c(C)c2)C1` (centres undefined) here?
The Potency was inconclusive [inhibitor, full curve, poor fit].

For `Oc1ccc(CN2CCc3ccccc3C2)c2cccnc12`, which Potency is on record?
Its Potency is active: 31.6 µM.

How did the Potency turn out when `CC(CN(C)Cc1nc(Cc2cccc(C(F)(F)F)c2)no1)CN1CCCC1` (centres undefined) was run?
The Potency was inconclusive [inhibitor, single point].

Which Potency does the source give for `CN(Cc1cccnc1)C(=O)c1ccc(Cl)c(NS(=O)(=O)c2ccc(F)cc2)c1` here?
The Potency was “inactive”.

For `CN1CCO/C1=C(\C(Cl)=C(Cl)Cl)[N+](=O)[O-]`, which Potency is on record?
Its Potency is active: 31.6 µM.

`O=C(c1ccc([N+](=O)[O-])s1)N1CCCc2ccccc21` was tested. Which Potency did it give?
The Potency was inconclusive [inhibitor, full curve].

How did the Potency turn out when `COc1ccc(S(=O)(=O)Nc2cc(S(=O)(=O)c3ccccc3)c(O)cc2C)cc1` was run?
The Potency was inconclusive [inhibitor, single point].

`CC(NC(=O)c1c(F)cccc1Cl)c1ccc(-n2ccnc2)cc1` (centres undefined) was tested. Which Potency did it give?
The Potency was inconclusive [inhibitor, partial curve].

`C#CCOCCOCCOCCNc1nc(N2CCN(C(=O)CCCCCCCCCCNC(=O)Cn3cc(C[C@@H](C)O)nn3)CC2)nc(N2CCN(C(=O)CCCCCCCCCCNC(=O)[C@H](CCCCN)n3cc(CCCC(=O)O)nn3)CC2)n1` was tested. Which Potency did it give?
Its Potency is inconclusive [inhibitor, partial curve].

For `Cn1cc(CCNC(=O)CC2C(=O)NCCN2CC(c2ccccc2)c2ccccc2)cn1` (centres undefined), which Potency is on record?
The Potency was inconclusive [inhibitor, partial curve].

With `O=C(NCCN1CCCCC1)Nc1ccc(Br)cc1` as the compound, how does the Potency read?
Its Potency is “inactive”.

Which Potency does the source give for `c1ccc(CSc2nnc(-c3cccnc3)o2)cc1` here?
The Potency was “inactive”.

`Cc1ccc(C)c(S(=O)(=O)NCc2ccc(C(=O)NCc3ccco3)cc2)c1` was tested. Which Potency did it give?
Its Potency is inconclusive [inhibitor, partial curve, poor fit].

For `Cn1c(=NC(=O)CCS(=O)(=O)c2ccccc2)sc2cc(F)ccc21`, which Potency is on record?
The Potency was inconclusive [inhibitor, full curve].

With `CN(Cc1cccs1)CC(O)COCc1ccco1` (centres undefined) as the compound, how does the Potency read?
Its Potency is inconclusive [inhibitor, partial curve].

Which Potency does the source give for `CC(=O)c1cccc(NC(=O)c2noc3c2CSc2ccccc2-3)c1` here?
The Potency was active: 11.2 µM.

With `COc1cc(/C=C2\N=C(C)OC2=O)cc(Cl)c1OC(C)=O` as the compound, how does the Potency read?
The Potency was active: 10 µM.

Which Potency does the source give for `COc1ccc(-c2ccc3c(c2)S(=O)(=O)c2cccc(C(=O)NC[C@@H]4CCCO4)c2C3=O)cc1OC` here?
The Potency was inconclusive [inhibitor, partial curve].

`O=S(=O)(/N=C(/Nc1cccc2ccccc12)c1ccccc1)c1ccc(F)cc1` was tested. Which Potency did it give?
The Potency was inconclusive [inhibitor, full curve, poor fit].

How did the Potency turn out when `Cc1ccc(C(=O)N2CCc3cc4c(cc3C2C)OCCCO4)cc1` (centres undefined) was run?
Its Potency is inconclusive [inhibitor, partial curve].

`CN(Cc1ccccc1)S(=O)(=O)c1ccc(F)c(C(=O)Nc2ccccc2C(F)(F)F)c1` was tested. Which Potency did it give?
The Potency was “inactive”.

With `Cc1cccc(-c2nc(CS(=O)CC(=O)N3CC(C)CC(C)C3)c(C)o2)c1` (centres undefined) as the compound, how does the Potency read?
The Potency was active: 35.5 µM.

For `COc1ccc(CN2CCNC(=O)C2CC(=O)N(C)CCc2cnn(C)c2)c(F)c1` (centres undefined), which Potency is on record?
Its Potency is inconclusive [inhibitor, partial curve].

With `CC(OC(=O)c1nn(C)c(=O)c2ccccc12)C(=O)NCc1ccc2c(c1)OCO2` (centres undefined) as the compound, how does the Potency read?
Its Potency is inconclusive [inhibitor, single point].

How did the Potency turn out when `CCOc1ccc(NC(=O)CN(C)C(=O)c2cc(S(=O)(=O)N(C)C)ccc2N2CCCC2)cc1OCC` was run?
The Potency was “inactive”.

Which Potency does the source give for `COc1ccc(NC(=O)CSc2oc(-c3ccc(C)cc3)nc2S(=O)(=O)c2ccc(C)cc2)c(OC)c1` here?
Its Potency is active: 50.1 µM.

With `Cc1ccc(C(=O)COC(=O)CN2C(=O)C3C4C=CC(C4)C3C2=O)cc1C` (centres undefined) as the compound, how does the Potency read?
The Potency was inconclusive [inhibitor, partial curve].

For `COc1ccc(/C=N/N2C(=O)CSC2=S)cc1`, which Potency is on record?
Its Potency is inconclusive [inhibitor, full curve].

How did the Potency turn out when `Cc1noc(C)c1CC(=O)N1CCCC(C(=O)c2ccc(C(C)(C)C)cc2)C1` (centres undefined) was run?
The Potency was “inactive”.

With `CC1=CC(C)(C)N2C(=O)C(=Nc3ccc(O)cc3)c3cccc1c32` as the compound, how does the Potency read?
The Potency was active: 10 µM.

Which Potency does the source give for `CC1CCN(C(=O)c2cnn(-c3ccc(Cl)cc3)c2C2CCN(C(=O)OC(C)(C)C)CC2)CC1` here?
The Potency was “inactive”.

`Cc1oc(-c2cccc(Cl)c2)[n+]([O-])c1C` was tested. Which Potency did it give?
Its Potency is inconclusive [inhibitor, partial curve].

How did the Potency turn out when `CCOC(=O)C(NS(=O)(=O)c1ccccc1)(C(F)(F)F)P(=O)(OC(C)C)OC(C)C` (centres undefined) was run?
Its Potency is active: 35.5 µM.

Which Potency does the source give for `Cc1cc(Nc2sc(C(=O)c3ccc(F)cc3)c(N)c2C(=O)Nc2ccc(F)cc2)ccc1Cl` here?
Its Potency is “inactive”.

Which Potency does the source give for `CC1CCN(c2nc(/C=C/c3ccccc3)nc3ccccc23)CC1` here?
The Potency was “inactive”.
